Over roughly 110,000 compounds, “z-score” has its median near -0.1; the highest 2% begin near 2. Some of the results follow.
The compounds below were run against Metabotropic glutamate receptor 8 (Rattus norvegicus) (UniProt P70579) (assay: rat mGluR8 modulators via GIRK flux, primary screen, cell-based, thallium flux, HTS (AID 488969)). Conditions: HEK293 rat mGluR8, GIRK (G protein-gated inwardly rectifying potassium channel) thallium flux, FluoZin2; at 10 µM; stronger effect = higher value; submaximal glutamate (EC20) added with thallium.
UniProt P70579, sequence (P70579 whole entry, looked up): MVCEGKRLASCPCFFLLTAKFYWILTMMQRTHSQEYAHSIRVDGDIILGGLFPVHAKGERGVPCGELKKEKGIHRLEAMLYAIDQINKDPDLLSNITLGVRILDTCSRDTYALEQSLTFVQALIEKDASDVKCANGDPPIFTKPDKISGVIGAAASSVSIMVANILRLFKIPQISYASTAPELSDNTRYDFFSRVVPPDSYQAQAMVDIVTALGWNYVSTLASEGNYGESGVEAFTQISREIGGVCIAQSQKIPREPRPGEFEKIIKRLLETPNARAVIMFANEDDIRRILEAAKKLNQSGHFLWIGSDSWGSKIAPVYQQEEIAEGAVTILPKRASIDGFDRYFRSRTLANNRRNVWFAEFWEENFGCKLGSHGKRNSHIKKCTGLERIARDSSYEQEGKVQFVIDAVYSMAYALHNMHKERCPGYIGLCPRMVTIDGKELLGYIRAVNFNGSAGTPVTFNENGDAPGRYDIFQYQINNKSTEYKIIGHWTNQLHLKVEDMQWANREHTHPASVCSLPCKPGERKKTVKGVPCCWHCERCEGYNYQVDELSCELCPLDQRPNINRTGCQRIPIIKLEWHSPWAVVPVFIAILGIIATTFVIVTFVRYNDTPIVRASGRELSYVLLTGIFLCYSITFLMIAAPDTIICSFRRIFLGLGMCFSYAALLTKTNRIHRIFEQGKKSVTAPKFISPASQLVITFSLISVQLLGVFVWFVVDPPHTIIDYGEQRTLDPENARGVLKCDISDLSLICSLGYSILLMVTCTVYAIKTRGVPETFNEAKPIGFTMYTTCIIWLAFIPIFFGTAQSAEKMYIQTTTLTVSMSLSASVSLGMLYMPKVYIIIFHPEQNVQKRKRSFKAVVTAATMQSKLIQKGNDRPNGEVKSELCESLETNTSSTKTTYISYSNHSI

Row | SMILES | z-score
1 | O=C1CSC(c2ccc(F)cc2)N1c1nnc(C23CC4CC(CC(C4)C2)C3)s1 (configuration not stated) | -0.38
2 | Cc1ccc(SCCNC(=O)c2ccccc2C)cc1 | -0.0405
3 | Cc1cc(C(F)(F)F)c(C#N)c(N2CCOCC2)n1 | 0.124
4 | O=c1oc2ccccc2cc1-c1nnc(NCc2ccco2)s1 | -0.037
5 | CCOc1ccc2nc(NCCNC(=O)Nc3cccc(C)c3)c(C#N)cc2c1 | -0.262
6 | CCCc1cc(=O)oc2cc3oc(C)c(C)c3cc12 | -0.654
7 | COC(=O)c1cn(C)c2ccc(S(=O)(=O)N3CCCC3)cc2c1=O | 0.0682
8 | COC(=O)c1cn(CC(=O)N2CCCCCC2)c2ccccc12 | -0.391
9 | NC(=O)C1(N2CCCCC2)CCN(C2CC(=O)N(Cc3ccc(N4CCCC4=O)cc3)C2=O)CC1 (configuration not stated) | -0.289
10 | Cc1cccc(Nc2ncc3c(n2)CC(c2ccco2)CC3=O)c1 (configuration not stated) | -1.12
11 | CCOC(=O)N1CCC2(CC1)C(C(=O)C13CC4CC(CC(C4)C1)C3)C2(C#N)C#N (configuration not stated) | 0.27
12 | CCCN1C2CCCC1CC(NC(=O)c1ccccc1F)C2 (configuration not stated) | -0.558
13 | COc1ccccc1NC(=O)C1=C(C)Nc2ncnn2C1c1ccccc1C (configuration not stated) | -0.278
14 | COc1cc(CC(=O)Nc2ccc3nc(C)sc3c2)cc(OC)c1OC | -0.158
15 | CC(C)(C)c1ccc(-c2nc(C#N)c(NCc3ccncc3)o2)cc1 | -0.377
16 | CCOC(=O)CC1ON(C)C(=O)N1c1ccc(Cl)cc1Cl (configuration not stated) | -0.877
17 | CS(=O)(=O)N(CC(=O)NC1CCCC1)c1cccc(F)c1 | 0.185
18 | O=C(CCSc1nc(-c2ccco2)cc(C(F)(F)F)n1)NCc1ccccn1 | -0.409
19 | CC[n+]1c(/C=C/C=C/N(C(C)=O)c2ccccc2)sc2ccccc21 | -1.67
20 | c1ccc(Cc2nc3ccccc3o2)cc1 | 0.245
21 | Cc1ccc(C(=O)Nc2nc3ccc(S(C)(=O)=O)cc3s2)o1 | -0.275
22 | [2H]c1c([2H])c([2H])c(-c2nc(N3CCCCCC3)sc2C(=O)c2ccccc2)c([2H])c1[2H] | -0.0335
23 | O=C(CN(c1ccccc1F)S(=O)(=O)c1ccccc1)N1CCCCCC1 | 0.433

Row | SMILES | z-score
24 | N#Cc1nc(COc2ccccc2)oc1N1CCN(Cc2ccccc2)CC1 | -0.0798
25 | COc1cc(C(c2c(C)[nH][nH]c2=O)c2c(C)[nH][nH]c2=O)ccc1OCc1ccc([N+](=O)[O-])cc1 | -0.18
26 | CCn1c(SCC(=O)C(C)(C)C)nnc1-c1cnccn1 | 0.117
27 | CCOc1ccc(NC(=O)c2cn(CC(C)C)c(=O)c3c2c2ccccc2n3C)cc1 | 0.279
28 | Cc1ccc(NC2(C(F)(F)F)N=C(c3ccccc3)NC2=O)nc1 (configuration not stated) | -0.269
29 | CCCn1nc(NC(=O)CC(C)C)c2cc3ccccc3nc21 | -1.32
30 | Cc1nn2c(-c3ccco3)nnc2c2ccccc12 | -0.178
31 | Cc1ccc(NC(=O)CN2C(=O)S/C(=C\c3cccn3-c3cccc(C(=O)O)c3)C2=O)c(C)c1 | -2
32 | CC1CCN(C(=O)CN(C)S(=O)(=O)c2cccc3nsnc23)CC1 | -0.0898
33 | COc1ccc(/C=C/C(=O)Nc2nc(C)c(C(=O)N(C)C)s2)cc1 | -0.338
34 | O=C(COC(=O)c1cc(C(F)(F)F)cc(C(F)(F)F)c1)NCc1ccc(Cl)cc1 | 0.113
35 | O=C(CCN1CCOCC1)NCC1COc2ccccc2O1 (configuration not stated) | 1.03
36 | C=CCc1ccccc1OCC(O)CN1CCN(Cc2ccc3c(c2)OCO3)CC1 (configuration not stated) | 0.628
37 | C#CCOc1c(Br)cc(/C=N/O)cc1OCC | -0.156
38 | O=C(COc1ccc(-c2ccccc2)cc1)N/N=C/c1cc(O)ccc1Br | 0.307
39 | COc1ccc(-c2c(C#N)c(N)nc3c2c(=O)n(C)c(=O)n3C)cc1Cl | 0.525
40 | C[N+](C)(C)CCOC(=O)C1(c2ccccc2)CCCC1 | -0.367
41 | CCC1CCC/C1=N\NC(=O)CCC(=O)Nc1ccccc1Cl (configuration not stated) | -0.352
42 | COc1ccc(S(=O)(=O)N(C)CC(=O)Nc2ccccc2OC)cc1C | -0.0507
43 | COC(=O)C1CCN(c2nc3ccccc3nc2C(C#N)C(=O)NCCc2ccccc2)CC1 (configuration not stated) | -0.0188
44 | CC(=O)c1c(C(C)=O)c(C)n(-c2ccc(N)c(C)c2)c1C | 0.143
45 | Cc1ccc(-n2c(C)cc(/C=N/NC(=O)CC3(C)OCCO3)c2C)cc1 | -0.17
46 | Cc1ccccc1NC(=O)c1cc(S(=O)(=O)c2ccccc2)ccc1Cl | -0.163

Row | SMILES | z-score
47 | CC(=O)Nc1ccc(C(=O)CS(=O)(=O)c2ccc(C)cc2)cc1 | -0.547
48 | COc1ccc(N(CC(=O)NN=C2CCCCCCC2)S(=O)(=O)c2ccccc2)cc1Cl | -0.145
49 | Fc1cc(F)cc(-c2oncc2-c2nnnn2-c2ccccc2)c1 | -0.177
50 | CCOc1ccc(OCC)c(NC(=O)CN2CCN(c3cc(C)ccc3C)CC2)c1 | 0.261
51 | Cn1c2c(c(=O)[nH]c1=O)C(NC(=O)c1ccco1)(C(F)(F)F)C(=O)N2 (configuration not stated) | -0.0598
52 | Cc1nn(C(C)(C)C)c(OC(=O)c2ccc3c(c2)OCO3)c1S(=O)(=O)c1ccccc1 | -0.639
53 | CCc1ccc(N2C(=O)C3NN=C(C(=O)OCc4ccccc4)C3C2=O)cc1 (configuration not stated) | -0.335
54 | COC(=O)Cn1c(SCc2ccccc2)nc2ccccc21 | 0.329
55 | Cc1cccc(CS(=O)(=O)c2nnc([C@H](Cc3ccccc3)NC(=O)OC(C)(C)C)o2)c1 | -0.919
56 | CC(=O)c1c(N2CCN(C(=O)c3ccco3)CC2)nc(=S)n(-c2ccccc2)c1C | 0.0296
57 | CC1CCC(NC(=O)C2CCN(c3cnccn3)CC2)CC1 (configuration not stated) | -0.0711
58 | Cc1ccc(NC(=O)c2cc(C(=O)c3cc(Cl)ccc3O)cn(-c3ccc(C)cc3)c2=O)cc1 | 0.328
59 | O=C(N[C@@H](Cc1ccccc1)c1nc2ccccc2[nH]1)c1cc([N+](=O)[O-])ccc1Cl | -0.361
60 | Cc1cc(C)n(-c2ccc(C(=O)OCC(=O)Nc3ccccc3[N+](=O)[O-])cc2)n1 | 0.0982
61 | Cc1oc(-c2ccccc2F)nc1CS(=O)(=O)CC(=O)N1CCN(c2ccccc2)CC1 | -0.734
62 | Cc1ccc(NC(=O)CN2CCC(NC(=O)Cc3ccccc3)CC2)c(C)c1 | 0.169
63 | CC(C)(C)C(=O)Nc1ccc(C(=O)NNC(=O)Cc2ccccc2)cc1 | 0.00171
64 | O=c1c(Oc2ccccc2F)coc2cc(OCc3cnn(-c4ccccc4)c3)ccc12 | 0.0288
65 | CC(=O)c1cc2c(cc1NC(=O)C1CC=CCC1C(=O)O)OCO2 (configuration not stated) | -0.0123
66 | CN(C)CC(C)(C)CNS(=O)(=O)c1ccc(Cl)c(Cl)c1 | 0.338
67 | O=C(CSc1ncnc2ccccc12)N1CCN(c2ccccc2)CC1 | -0.0217

— PubChem BioAssay AID488969 (Vanderbilt High Throughput Screening Facility, 2010)
